Results reported in the RNAGym collection of RNA variant scans (doi:10.7554/elife.90254).
The source gives no read counts; variants with many changes may rest on few reads.

B1: LINE1-full (parent)
chain: UACGUAGGUGGUUUUCCCCUGAUAGUGCUAAGGGGGCCUGGAAGUUUGGACUGGGCAGAGCUCAACACAGCGUGGCAAAGUGGCUGUGGCUAGACUGCCUCUCUGGAUUCCUCGUCACUCAGCAGGGCAUCUCUGAGAGAAAUGCC

Variants of: B1
Assay: self-cleavage, relative activity (ratio to wild type); higher = more cleavage; in vitro, sequencing; the parent is a self-cleaving ribozyme
In the case of U87C A117U U119C, the self-cleavage is reported as 0.19.
Work on U14C A50G A129U yielded a self-cleavage of 0.11.
Variant U9C A43G U62C A136U has a self-cleavage of 0.
In the case of A65G A67G U73C U112A C123U, the self-cleavage is reported as 0.
In the case of U5C A64G A77G U81A C131U, the self-cleavage is reported as 0.78.
U12G U45C U112A gave a self-cleavage of 0.78.
U23C U96A U109C A129G gave a self-cleavage of 0.
Variant U13C U14C G93A A121C A124G A141G U143C has a self-cleavage of 0.08.
With U9A A57G U119C the self-cleavage was 1.38.
A6G A79G U134A gave a self-cleavage of 0.54.
With A6G A57G G75A U130C the self-cleavage was 0.4.
For U108C U119C A142G, the self-cleavage was 0.51.
Variant G53U A92G U112C has a self-cleavage of 0.11.
C3U A57U U91C C113U gave a self-cleavage of 0.17.
In the case of U9A A67G U81A U112A, the self-cleavage is reported as 0.41.
In the case of U13C U26C G35U G54A A57G A79G U134A, the self-cleavage is reported as 0.53.
In the case of U26C A43G A77U A107G, the self-cleavage is reported as 1.39.
U1A C51U U62A A77G A141G showed a self-cleavage of 0.23.
A22G G49C A78G U85A U102C gave a self-cleavage of 0.
With A77G A78G C116U the self-cleavage was 1.06.
With U9A U12G U14C U39C A140U the self-cleavage was 1.18.
For U26C A50G U109G, the self-cleavage was 0.71.
Variant G11A G49A U112C has a self-cleavage of 0.71.
Work on A77G A78G A140G yielded a self-cleavage of 2.14.
Variant U15C U29C C63U A67U A129G has a self-cleavage of 0.1.
With A77G U91A G126A the self-cleavage was 1.34.
A31G U81C A140G gave a self-cleavage of 0.84.
U12C A57G U85A showed a self-cleavage of 0.
Variant U20C A64G A136G has a self-cleavage of 0.36.
A31C U104A U132C gave a self-cleavage of 1.46.
U12A U81C A94G A121U U132C gave a self-cleavage of 0.
Work on U62C G82A U100A U119C yielded a self-cleavage of 0.02.
For U9C A67C A92U, the self-cleavage was 0.04.
For A124G U134A A136G, the self-cleavage was 0.42.
For G70A U130C A140G, the self-cleavage was 0.17.
In the case of U9G A22G U134C, the self-cleavage is reported as 2.07.
With A92C U112C U119A U132C the self-cleavage was 0.26.
Work on G33U U46C U143A yielded a self-cleavage of 1.4.
In the case of A2G G88A U108C A117U A121G A136U A138U, the self-cleavage is reported as 0.
Work on A117U A121U A138G yielded a self-cleavage of 1.22.
Variant A43G U45C A129G has a self-cleavage of 0.
Variant G32A A59C A79G has a self-cleavage of 0.39.
For U9C U23C A24U A65U A77G U96C, the self-cleavage was 0.
A59G G60A U73A U91C gave a self-cleavage of 0.01.
A69U U73G A77C U115C showed a self-cleavage of 0.
For U39C U115C A138G, the self-cleavage was 2.57.
With A2G A78U A140G the self-cleavage was 2.05.
Work on U14C U132C A140U yielded a self-cleavage of 1.51.
A50G A121C U134C gave a self-cleavage of 1.72.
For U9C U12G U29C C84U, the self-cleavage was 0.99.
U12G C37U A78G showed a self-cleavage of 1.17.
Work on U1A U47A U87C A117G A129G U132A yielded a self-cleavage of 0.
In the case of G55U C120U A138G, the self-cleavage is reported as 1.43.
U5C U29C A69G gave a self-cleavage of 0.
U39A A129G A141U gave a self-cleavage of 2.21.
Work on A30G G80U U96A yielded a self-cleavage of 0.13.
With A24U A67G C128U G139A the self-cleavage was 0.46.
For A22G A30G U39C C51U A129U A136G, the self-cleavage was 0.97.
A22U G34A A50U U96G gave a self-cleavage of 0.24.
U1C A77G U96A U134A gave a self-cleavage of 0.14.
G44U A69G A140G A142G showed a self-cleavage of 0.67.
With U5C U15G A94G A138G the self-cleavage was 1.31.
In the case of A30G U62A U104G, the self-cleavage is reported as 0.
In the case of U9C U47C A79G U100A A117G, the self-cleavage is reported as 1.15.
U9C U100C U115C U132A gave a self-cleavage of 2.3.
Work on C16U U102C U119C yielded a self-cleavage of 0.
For A79G U85C U102C, the self-cleavage was 0.32.
For U14A U62C A141U, the self-cleavage was 0.24.
In the case of U12A U73C A142G, the self-cleavage is reported as 1.88.
In the case of U87A U104A U115C A124U A140G, the self-cleavage is reported as 0.08.
With U20C A31G G60A the self-cleavage was 0.
Work on U9C U26C A67U C98U U134C yielded a self-cleavage of 0.09.
With A65G U100C A136U the self-cleavage was 0.
U1C U62C A69U U81A A92U U100C A141G showed a self-cleavage of 0.
For U9A A77U U96A A124G, the self-cleavage was 0.
Work on G60U G106A G122A yielded a self-cleavage of 0.03.
With G54U A59G U100C U115C the self-cleavage was 0.25.
For U1C A2G U9A G97A U130C, the self-cleavage was 0.23.
For U12G U39C G105U A138U, the self-cleavage was 1.46.
In the case of U12C A57G U62C U85A, the self-cleavage is reported as 0.09.
Work on G7C A30G A117G yielded a self-cleavage of 0.95.
In the case of A65G C66G A107G, the self-cleavage is reported as 0.05.
In the case of U12C A31G U87A, the self-cleavage is reported as 0.09.
U14C U62A A141G showed a self-cleavage of 0.06.
Work on G34U C76U A140G yielded a self-cleavage of 2.2.
In the case of U12G U14C C120U, the self-cleavage is reported as 1.42.
For A57U A92U A141G, the self-cleavage was 0.06.
For U14C G33U U115C A129U U130C, the self-cleavage was 2.39.
U9A C51U U87A A94G showed a self-cleavage of 0.15.
With C17A C68U U109A A129G A138G the self-cleavage was 0.05.
Work on A6G U134A A141G yielded a self-cleavage of 0.56.
Variant U1C A65G U130C has a self-cleavage of 0.
U12C U20C U23C A57G C71A showed a self-cleavage of 0.18.
Variant A31G A92G A138G has a self-cleavage of 0.09.
With U9C A24G A50U A78G A142G the self-cleavage was 0.97.
With U26C A50G A92G the self-cleavage was 0.
U14C U45A A117G G122A gave a self-cleavage of 2.21.
Work on A67U A69C A94G A142G yielded a self-cleavage of 0.
U1C U12G A64U showed a self-cleavage of 0.48.
Variant U5C A77G C103A U104C has a self-cleavage of 1.02.
For U46A U62C A94G A124G, the self-cleavage was 0.
For U29C U39A A94G U96C A138G, the self-cleavage was 0.
In the case of U13C A59G A67U C71U C113U A141G, the self-cleavage is reported as 0.03.
U14C U15A U87C A141G showed a self-cleavage of 0.48.
With A30U A59U A78U U134A G144A the self-cleavage was 0.86.
U14C U85A U143C showed a self-cleavage of 0.16.
For C28U U104C U109A, the self-cleavage was 1.3.
Variant U9C A50G U109C has a self-cleavage of 2.04.
For A6U U39A A42G A57G A124U A138U A142G, the self-cleavage was 1.21.
U62C A78G U100C showed a self-cleavage of 0.
A24U A57G U85C gave a self-cleavage of 0.12.
Variant U45C A59G A140G has a self-cleavage of 0.26.
Work on U12G A57U A64G U91C yielded a self-cleavage of 0.56.
U13A U134A A140U gave a self-cleavage of 1.44.
U15A C37U U87C A94G U134C gave a self-cleavage of 0.09.
With U15C U39A U132C the self-cleavage was 1.57.
For G33U U46C U52C U85C A92U U132A, the self-cleavage was 0.
For U14C A69G U130C, the self-cleavage was 0.37.
A22G A57U A79G U91C U108C showed a self-cleavage of 0.
With A6G U73A A107G the self-cleavage was 1.21.
Variant C16U U20A A57G has a self-cleavage of 1.5.
Variant U5C A30G U45C A140G has a self-cleavage of 0.93.
U23C A30G U87C A138G showed a self-cleavage of 0.
With U47C A65G U73A A121U U132A the self-cleavage was 0.05.
For U73A U104C A142G, the self-cleavage was 2.14.
Variant A6U U13C U102C A129G has a self-cleavage of 2.15.
Variant A57G U85G A141G has a self-cleavage of 0.14.
Variant U9A G40A A79G U96C has a self-cleavage of 0.05.
Variant U26C C37U A79G has a self-cleavage of 1.19.
In the case of U15C U29A U130A U134A, the self-cleavage is reported as 0.58.
Variant U87C U112C U115C A141G has a self-cleavage of 0.
In the case of A43U U62C U108C, the self-cleavage is reported as 0.11.
With U87A A121G U134C A142G the self-cleavage was 0.
A22G A42G U46A A57U showed a self-cleavage of 0.23.
For U20C A77U U85A U100C U112A U115C C120U, the self-cleavage was 0.18.
Variant C37G A65G A140G A142G has a self-cleavage of 0.
Variant U20C U73A U81A has a self-cleavage of 1.94.
With G8A U13C A59G G114U U115C the self-cleavage was 0.18.
Work on U39C A43G U132A yielded a self-cleavage of 0.9.
Variant A59G A136G A138G has a self-cleavage of 0.05.
For U1C C63U A79G G114A U119A, the self-cleavage was 0.02.
Variant U26C G35C G82A has a self-cleavage of 2.27.
A77G G86C A107G G144A gave a self-cleavage of 0.15.
A64U A69G G86C U132A showed a self-cleavage of 0.01.
In the case of C118U A121C U134G, the self-cleavage is reported as 2.11.
Work on U13C G32A A50G yielded a self-cleavage of 1.21.
For U13C A50C A65G G70A A138U A140G, the self-cleavage was 0.
For C56A U96G A140G, the self-cleavage was 0.04.
In the case of U14C U73C A78G A129G, the self-cleavage is reported as 2.7.
For U14C G33A U73C A121G, the self-cleavage was 1.06.
G4A U62A U85A gave a self-cleavage of 0.09.
For U20C C56A U112C A140G, the self-cleavage was 0.05.
Variant U62C G97U U130C has a self-cleavage of 0.08.
For A57U A79G U104A U134C, the self-cleavage was 0.09.
Variant U20G U62C G82A has a self-cleavage of 0.07.
A57G U62A U73A gave a self-cleavage of 0.02.
U15G C51A U102C showed a self-cleavage of 1.39.
C61U U85A U109C A142G gave a self-cleavage of 0.04.
For U12G A57G U85A, the self-cleavage was 0.
U9A U14A G32A A79G U109C C118U A140G gave a self-cleavage of 0.27.
Work on G32U U39C U47C U109A A140G yielded a self-cleavage of 0.34.
In the case of U23C U45G A142G, the self-cleavage is reported as 0.83.
U20A A43G U130A U132C showed a self-cleavage of 1.62.
For G10A A24U A43U, the self-cleavage was 1.33.
U1C C18U U104C gave a self-cleavage of 1.01.
For U46C U96C C103A A124G, the self-cleavage was 0.12.
With U15C A79G A140U the self-cleavage was 2.7.
